The results in this text go back to publication PMC8462813.

Results are given in words; binding and its absence hold for the method and conditions named. Some results given as binding are weak or reduced against the parent protein; the word gives no strength. Where a sequence is shown, tags or fusion partners need not be part of it.

For experiment [1], the target named is T1, BD-PRR7 (PSEUDO-RESPONSE REGULATOR7, full length, fused to the Gal4 DNA-binding domain) (Arabidopsis thaliana) (UniProt Q93WK5).
T1 sequence: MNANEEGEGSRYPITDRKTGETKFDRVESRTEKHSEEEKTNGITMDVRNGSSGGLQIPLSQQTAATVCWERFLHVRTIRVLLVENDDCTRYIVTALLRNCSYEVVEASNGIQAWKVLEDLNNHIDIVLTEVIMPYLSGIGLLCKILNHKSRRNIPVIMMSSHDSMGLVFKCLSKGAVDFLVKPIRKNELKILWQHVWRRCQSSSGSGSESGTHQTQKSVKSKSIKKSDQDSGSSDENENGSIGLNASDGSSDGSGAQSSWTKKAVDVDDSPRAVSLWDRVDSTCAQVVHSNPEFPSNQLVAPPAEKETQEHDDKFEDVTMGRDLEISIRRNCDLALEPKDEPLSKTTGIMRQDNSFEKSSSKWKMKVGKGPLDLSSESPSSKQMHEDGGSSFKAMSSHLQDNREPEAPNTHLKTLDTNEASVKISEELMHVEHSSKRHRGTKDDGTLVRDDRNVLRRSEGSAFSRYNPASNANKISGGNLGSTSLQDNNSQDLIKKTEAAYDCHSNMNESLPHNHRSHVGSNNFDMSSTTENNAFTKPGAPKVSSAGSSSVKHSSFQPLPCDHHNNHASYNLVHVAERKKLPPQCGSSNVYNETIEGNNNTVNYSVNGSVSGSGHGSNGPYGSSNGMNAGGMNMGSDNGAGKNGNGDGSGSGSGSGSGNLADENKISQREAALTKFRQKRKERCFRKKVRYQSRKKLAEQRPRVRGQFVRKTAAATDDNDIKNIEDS
In words: two-hybrid; Gal4 system; baits in pGBKT7 (BD), preys in pGADT7 (AD), cotransformed into yeast AH109; growth on dropout medium lacking Leu, Trp, His and Ade for 4 days.

The target of experiment [2] is T2, BD-PRR5 (PSEUDO-RESPONSE REGULATOR5, full length, fused to the Gal4 DNA-binding domain) (Arabidopsis thaliana) (UniProt Q6LA42).
T2 sequence: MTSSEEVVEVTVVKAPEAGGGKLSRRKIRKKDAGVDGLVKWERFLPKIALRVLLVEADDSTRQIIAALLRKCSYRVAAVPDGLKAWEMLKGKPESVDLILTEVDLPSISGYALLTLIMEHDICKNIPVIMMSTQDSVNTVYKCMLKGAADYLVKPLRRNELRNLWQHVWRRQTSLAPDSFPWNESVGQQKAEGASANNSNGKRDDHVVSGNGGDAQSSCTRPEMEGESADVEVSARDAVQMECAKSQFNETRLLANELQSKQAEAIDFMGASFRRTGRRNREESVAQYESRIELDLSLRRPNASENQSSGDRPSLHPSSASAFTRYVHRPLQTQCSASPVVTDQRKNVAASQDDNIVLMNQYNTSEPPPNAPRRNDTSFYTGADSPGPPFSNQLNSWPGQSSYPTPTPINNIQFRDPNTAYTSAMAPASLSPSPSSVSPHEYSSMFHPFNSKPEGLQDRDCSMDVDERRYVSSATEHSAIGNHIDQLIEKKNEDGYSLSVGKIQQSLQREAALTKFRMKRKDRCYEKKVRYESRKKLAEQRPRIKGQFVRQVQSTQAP
The experiment is described as above.

B1: AD-ABI5 (ABSCISIC ACID-…5, full length, fused to the Gal4 activation domain) (protein, UniProt Q9SJN0 1-442)
chain: MVTRETKLTSEREVESSMAQARHNGGGGGENHPFTSLGRQSSIYSLTLDEFQHALCENGKNFGSMNMDEFLVSIWNAEENNNNQQQAAAAAGSHSVPANHNGFNNNNNNGGEGGVGVFSGGSRGNEDANNKRGIANESSLPRQGSLTLPAPLCRKTVDEVWSEIHRGGGSGNGGDSNGRSSSSNGQNNAQNGGETAARQPTFGEMTLEDFLVKAGVVREHPTNPKPNPNPNQNQNPSSVIPAAAQQQLYGVFQGTGDPSFPGQAMGVGDPSGYAKRTGGGGYQQAPPVQAGVCYGGGVGFGAGGQQMGMVGPLSPVSSDGLGHGQVDNIGGQYGVDMGGLRGRKRVVDGPVEKVVERRQRRMIKNRESAARSRARKQAYTVELEAELNQLKEENAQLKHALAELERKRKQQYFESLKSRAQPKLPKSNGRLRTLMRNPSCPL
Consider B1, for which the binding result in experiment [1] and in experiment [2] was “binds” in each case.
